About 540 (0.36%) of roughly 150,000 compounds showed an effect of 50% or more. The list shows a part of the results.

The experiment deals with Plasmodium falciparum. The experiment in a line: Primary screen in NF54 nanoGlo assay, in single point, at 2uM, 72h; a lower Z score goes with more inhibition. Format: functional, Erythrocyte. Conditions: timepoint 72 hour.
For the compound `CS(=O)(=O)N[C@H]1CCN(CC#Cc2ccc(F)cc2)C1`, the % Inhibition (as a rule, the change of the read-out against control, counted positive when it falls) stood at 0% and the Z score was found to be 0.02.
As to `Cc1c(N[C@H](c2ccccc2O)c2c(C)n(C)n(-c3ccccc3)c2=O)c(=O)n(-c2ccccc2)n1C`, the “% Inhibition” value was determined as 14% and the Z score is reported as -2.12.
For `COc1ccc(CCN=C(N(C)C)N(C)C)c(F)c1`, in that order: -21% and 2.14.
For the compound `CC(C)C(NC(=O)C1CCCCC(=O)N1)C1(CO)CCC1` (stereo not given), the “% Inhibition” value was -16% and the Z score stood at 1.66.
With `Cc1ccc(C(=O)C(=O)NC2CCCC2)cc1`, the “% Inhibition” value turned out to be 4% and the Z score was -0.52.
Turning to `Cc1nc2ccc(CNS(=O)(=O)N3CCCC3)cc2[nH]1`, the “% Inhibition” value came to 6% and the Z score is given as -0.84.
For the compound `Cc1nc(C)n(CCCNC(=O)c2cccc(-c3ccc(=O)[nH]c3)c2)n1`, the “% Inhibition” value is -7% and the Z score is 1.12.
The matching figures for `COc1cc(-c2ccno2)ccc1S(=O)(=O)NCc1ccc(C)o1`: -10% and 1.7.
For `COc1ccc(-c2cc(N3CC[C@H](NC(=O)c4ccc(F)c(F)c4)C3)[nH]n2)cc1`, the “% Inhibition” value is recorded as -10% and the Z score was 1.02.
For `CCC[C@H](C)c1nc(N2CCCN(C(=O)C(C)(C)C)CC2)c2c(C)nn(-c3ccc(F)cc3)c2n1`, the “% Inhibition” value is 2% and the Z score is given as -0.26.
For `O=C(OCCOCC(F)(F)F)c1ccnc(C2CC2)n1`, the “% Inhibition” value is given as -7% and the Z score is 0.88.
For `Cc1cnc(C(=O)N2CCC(F)(c3ccccc3Cl)CC2)cn1`, the “% Inhibition” value is -11% and the Z score is listed as 1.28.
The matching figures for `COC(C)(C)CCNC(=O)CC[C@H](C)N1CCN(C)CC1`: 1% and -0.15.
Take `O=C(CCc1nc2ccccc2s1)N1CCC2(CC1)C[C@@H](N1CCOCC1)CCO2`: the “% Inhibition” value is given as -10% and the Z score amounted to 1.29.
With `CC(C)c1cc(C(=O)N[C@H]2CCCOc3c(Cl)cccc32)nn1C`, the “% Inhibition” value was -7% and the Z score was 1.39.
As to `O=c1[nH]nc2ccc(N3CCC4(CCCCC4)C3)nn12`, the “% Inhibition” value is reported as 6% and the Z score is recorded as -0.56.
For `COc1cccc(C(=O)N2[C@H](C(=O)NC3CC3)COC23CCN(C(=O)c2cccc(F)c2)CC3)c1`, in that order: 3% and -0.42.
Regarding `FC(F)(F)c1n[nH]c2nc3ccc(Br)cc3c(-c3ccccc3)c12`, the “% Inhibition” value was -3% and the Z score came to 0.47.
In the case of `CCN(Cc1ccccc1)c1ccc(C(=O)O)cc1NS(=O)(=O)c1cc(C)c(C)cc1C`, the “% Inhibition” value is -15% and the Z score was found to be 1.45.
For `Cc1ccc2c(Cl)c(C(=O)N(Cc3cccc(Cl)c3)[C@H]3CCS(=O)(=O)C3)sc2c1`, in that order: -2% and 0.17.
For `CCc1ccc([C@@H]2COCCN2c2ncnc3[nH]ncc23)o1`, in that order: -37% and 4.31.
Take `CC(C)(CNC(=O)c1cc(=O)[nH]c(C2CC2)n1)c1ccccc1F`: the “% Inhibition” value is given as -6% and the Z score worked out at 0.74.
Turning to `CC(C)c1nnc(C2CCN(C(=O)c3c[nH]c4ccccc34)CC2)o1`, the “% Inhibition” value was determined as 11% and the Z score is -1.46.
In the case of `COc1ccc(NC(=O)c2nnc(C3CCN(C(=O)NCc4ccco4)CC3)s2)cc1`, the “% Inhibition” value is reported as -19% and the Z score came out at 1.74.
With `CCNC(=O)[C@@H]1CC[C@](C)(C(=O)NCCc2nnc(N)s2)C1(C)C`, the “% Inhibition” value is reported as -1% and the Z score is 0.2.
`NC(=O)c1ccc(N2CC3CC=CCC3C2)nn1` (stereo not given): the “% Inhibition” value is given as -5% and the Z score is listed as 0.68.
For the compound `N#CCN(CC#N)C(=O)c1ccc(Cl)cc1F`, the “% Inhibition” value stood at 0% and the Z score is listed as 0.03.
For the compound `c1ccc(-c2noc(Cc3cccc4ccccc34)n2)nc1`, the “% Inhibition” value was -9% and the Z score worked out at 1.28.
Regarding `C[C@@H]1[C@H](C(=O)NCCn2ccnn2)CCCN1C(=O)OC(C)(C)C`, the “% Inhibition” value is on record as -15% and the Z score was determined as 2.06.
As to `CC(C)Cc1nc2c(Br)cc(Br)cn2c1NC1CCCCC1`, the “% Inhibition” value was -16% and the Z score is reported as 1.6.
For `Cc1cccc(CN2[C@H](CNS(=O)(=O)c3ccccc3)CN(C)C(=O)[C@@H]2C)c1`, in that order: -6% and 0.85.
Turning to `COc1cccc(C(=O)NC[C@H]2Cn3cccc3CN2Cc2ccccc2)c1`, the “% Inhibition” value is on record as 1% and the Z score is listed as -0.17.
Take `Cc1cc(C(=O)N2Cc3c(C(=O)NC4CC4)nn(C)c3C2)no1`: the “% Inhibition” value is reported as -4% and the Z score turned out to be 0.52.
Consider `Cc1nn(CCCNc2cc([C@H]3CCOC3)nc(N)n2)c(C)c1Cl`, for which the “% Inhibition” value was -5% and the Z score was determined as 0.72.
For `COc1ccccc1CCC(=O)N1CC(N2C[C@H](CO)NC2=O)C1`, the “% Inhibition” value is recorded as -4% and the Z score turned out to be 0.44.
The matching figures for `O=C1CCC2(CCN(C(=O)c3ccccc3F)CC2)CN1CCc1c[nH]cn1`: -4% and 0.66.
For `CCc1nnc(CN(C)Cc2[nH]cc(C)c(=O)c2C)o1`, in that order: -7% and 0.68.
`O=C(O)C1C2C=CC(CC2)C1C(=O)N1CCN(c2ccccc2F)CC1` (stereo not given): the “% Inhibition” value is given as -20% and the Z score is 2.31.
As for `COc1ccccc1C1(CNC(=O)c2sc(C)nc2C)CCOCC1`, the “% Inhibition” value is listed as -5% and the Z score came out at 0.6.
For `COc1ccc(C)cc1/N=C(\NC[C@H]1CCCO1)NC(=O)c1cccc(C)c1`, in that order: -15% and 1.35.
Regarding `COC(=O)c1cc(-c2cnn(C)c2)on1`, the “% Inhibition” value is -32% and the Z score is 3.78.
With `Cc1ncc(CO)c(CN2CCOC[C@@H]2CC(=O)NCc2cccnc2)c1O`, the “% Inhibition” value is -4% and the Z score turned out to be 0.73.
The matching figures for `CC1C(C)[S+]([O-])CCN1Cc1nc(N)nc(N(C)C)n1` (stereo not given): 11% and -2.07.
As for `Cc1cnccc1CN(C)C(=O)Cc1ccncc1`, the “% Inhibition” value is given as 5% and the Z score is -0.66.
For `COCC1(C(=O)N2CCN(c3ccc(F)c(Cl)c3)CC2)CCC1`, in that order: -25% and 2.46.
For `Cc1nocc1NC(=O)N1CCN(c2ncnc3sccc23)CC1`, the “% Inhibition” value is -19% and the Z score was 2.23.
For `O=C(c1cc(S(=O)(=O)N2CCCC2)c[nH]1)N1CCCCCC1`, the “% Inhibition” value is listed as -13% and the Z score is recorded as 1.29.
With `CCN(Cc1cn(C)nc1C)C(=O)c1cn2c(n1)C(=O)N(Cc1ccccc1)CC2`, the “% Inhibition” value was -12% and the Z score came to 1.62.
Consider `CCCN1CCN(S(C)(=O)=O)c2cc(F)ccc21`, for which the “% Inhibition” value is on record as -3% and the Z score was found to be 0.43.
For `Cc1occc1C(=O)N1CC[C@@]2(CCCN(CC3CCCCC3)C2=O)C1`, in that order: -8% and 1.07.
For `O=C(O)C1CCC(C(=O)N2CCC[C@H]2c2cc(F)cc(Br)c2)CC1` (stereo not given in full), the “% Inhibition” value was -29% and the Z score turned out to be 3.37.
The matching figures for `O=C(NCCc1ccc2c(c1)OCCO2)c1ccsc1`: -17% and 1.63.
The matching figures for `CC(=O)NCC(C)(C)c1c(F)cccc1Cl`: -3% and 0.37.
As to `O=C(Cn1c(=O)n(Cc2ccccc2F)c(=O)c2sccc21)NC1CCCCC1`, the “% Inhibition” value is listed as -11% and the Z score is reported as 1.61.
On to `CCc1ccccc1OCCN[C@H](C(N)=O)[C@@H](C)O`, for which the “% Inhibition” value was -8% and the Z score amounted to 1.69.
With `Cc1cc2c3c([nH]c2cc1S(=O)(=O)NCc1ccc(N(C)C)cc1)CC(C)(C)CC3=O`, the “% Inhibition” value is reported as -19% and the Z score was 3.75.
As to `Cc1ccc(NC(=O)[C@@H]2CNC[C@H](C(=O)NCCn3cccn3)C2)cc1`, the “% Inhibition” value is on record as -4% and the Z score came out at 0.91.
As for `CN(C)c1ccccc1NC(=O)C1CCCC1`, the “% Inhibition” value is reported as 0% and the Z score is -0.04.
Turning to `CCC(=O)N1CCc2cn(C)c3cccc(c23)C1`, the “% Inhibition” value is given as -9% and the Z score stood at 1.46.
For `COc1ccc(/C=C/CN2CCN(c3ncc(Cl)cn3)CC2)cc1`, in that order: 17% and -2.13.
For `Cc1ccc(OS(=O)(=O)c2c[nH]c(C(=O)N3CCCC3)c2)cc1`, in that order: -29% and 3.4.
As for `CC(C)C[C@@H](NC(=O)c1c(F)cccc1Cl)C(=O)O`, the “% Inhibition” value is -4% and the Z score worked out at 0.58.
As to `CCc1ccnc(C(=O)N(Cc2cncs2)Cc2cncs2)c1`, the “% Inhibition” value is -9% and the Z score stood at 1.36.
As for `O=C(c1ccc2c3c(cccc13)CC2)[C@H]1CCCN(C(=O)CCc2cccnc2)C1`, the “% Inhibition” value is -8% and the Z score is given as 0.96.
With `O=C(NCc1cccnc1)c1cccc(C(=O)NCc2cccnc2)n1`, the “% Inhibition” value is listed as -9% and the Z score is 1.19.
On to `CC1(C)CC(NC(=O)NCC2CCCS(=O)(=O)C2)c2ccccc21` (stereo not given), for which the “% Inhibition” value was -4% and the Z score is on record as 0.42.
In the case of `Cc1ccc(N(C)C2CCN(C(=O)[C@H](C)n3cncn3)CC2)nn1`, the “% Inhibition” value is -5% and the Z score is 0.72.
With `Nc1c(-c2ccccc2C(F)(F)F)ncnc1N1CCCCC1`, the “% Inhibition” value is given as -3% and the Z score is reported as 0.63.
Turning to `CC(=O)NC1(C)CCC2(C)CC1(C)C(C)=NC2(C)C` (stereo not given), the “% Inhibition” value is listed as -4% and the Z score is reported as 0.59.
With `CCCC(C)CNC1(C)CCCCC1C(=O)OC` (stereo not given), the “% Inhibition” value was -1% and the Z score is 0.08.
With `COC[C@@H]1CC(F)(F)CN1C1CCN(C(=O)c2cncn2C)CC1`, the “% Inhibition” value was -3% and the Z score came to 0.56.
For `CC[C@H](NC(=O)C1(C#N)CCCC1)C(=O)OC`, in that order: -8% and 1.26.
As for `Clc1cc(Br)ccc1OCCOCCNCc1ccccc1`, the “% Inhibition” value was -6% and the Z score was found to be 0.79.
For `COc1nn(C)cc1NC(=O)NCC[C@H]1CCC(C)(C)CO1`, the “% Inhibition” value is -2% and the Z score worked out at 0.29.
For the compound `Cc1n[nH]cc1CNC1CCCCC1C(F)(F)F` (stereo not given), the “% Inhibition” value is -2% and the Z score is reported as 0.41.
As to `CCc1cnc(C)nc1N1CCN(C)[C@]2(CCC(=O)N(CC3CC3)CC2)C1`, the “% Inhibition” value is -12% and the Z score stood at 2.33.
Consider `Cc1ccc(CNC[C@H](O)c2cc(Cl)c3c(c2)OCCO3)nc1`, for which the “% Inhibition” value is -8% and the Z score was 1.22.
For `NC(=O)C1CCCC1NC(=O)c1ccc(OC2CCC2)cc1Cl` (stereo not given), in that order: -16% and 1.9.
The matching figures for `CCOC(=O)c1c(F)cc(F)c(F)c1N`: 1% and -0.08.
Take `O=C(NCc1cncc(-c2ccco2)c1)c1ccncc1`: the “% Inhibition” value is recorded as -9% and the Z score is recorded as 1.77.
Take `C1CCC2(C1)COCC[C@@H]2NCc1nnnn1C1CC1`: the “% Inhibition” value is 3% and the Z score is recorded as -0.52.
The matching figures for `CC(C)n1cc(CN(C)C(=O)c2cnc(N3CCCC3)nc2)cn1`: -11% and 1.69.
`COc1ccc2c(c1)CN(C(=O)Nc1ccc(CCC(C)C)cn1)C2`: the “% Inhibition” value is -5% and the Z score is given as 0.74.
`O=C(c1cnn(Cc2ccccc2)c1)N1CCn2nc(CO)cc2C1`: the “% Inhibition” value was 20% and the Z score was -2.57.
Consider `O=C(Nc1cccc(Cl)c1)Nc1ccc2[nH]c(=O)oc2c1`, for which the “% Inhibition” value was 8% and the Z score is reported as -1.2.

For the origin of these results see ChEMBL document CHEMBL4888484, “Replenishing the malaria drug discovery pipeline: Screening and hit evaluation of the MMV Hit Generation Library 1 (HGL1) against asexual blood stage Plasmodium falciparum ,using a nano luciferase reporter read-out” (2022).
